Results as given in the supplement of paper PMC10126150.
Sequences with one replicate were seen in a single cluster, so their values are uncertain.

test system: ATP; assay: switch fluorescence ratio, 500 uM ATP over buffer (Cy3 cluster intensity, sum of 5 cycles each) (fold (ratio)); higher = stronger signal-on switching upon ATP binding; sequences stand for … in TCGTCGGCAGCGTCAGATGTGTATAAGAGACAGTTTTTTTTTTTTTTTTTTTTTTTTT…TC; settings: aptamer strand: ATP DNA aptamer (quencher-CACCTGGGGGAGTATTGCGGAGGAAGG + anchor), 100 nM annealed; ATP concentration: 500 uM; one replicate
Outline: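 Imaging in selection buffer was followed by imaging after 15 min with 500 uM ATP at 22 °C, for Cy3-labelled switching-strand clusters annealed to 100 nM quencher-labelled ATP aptamer on a modified Illumina MiSeq flow-cell. Five of these buffer/ATP cycles ran, separated by NaOH stripping and re-annealing. The fluorescence ratio per cluster is summed target-cycle over summed buffer-cycle Cy3 intensity, averaged per switch-domain sequence; clusters outside 100-1000 RFU were removed.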
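Further: ATP exposure 15 min at 22 °C before imaging.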

Row | Sequence | switch fluorescence ratio
1 | AGTACGTTAA | 1.21
2 | AGTACTAATG | 1
3 | AGTAGAAGGA | 0.979
4 | AGTAGACAAT | 0.987
5 | AGTAGACTA | 1.01
6 | AGTAGACTGT | 1.02
7 | AGTAGCTTCT | 1.02
8 | AGTAGGAGGG | 0.995
9 | AGTAGGCGTC | 1.06
10 | AGTAGGCTTG | 1.02
11 | AGTAGTGTGA | 1.07
12 | AGTAGTTGTG | 0.995
13 | AGTAGTTTG | 1
14 | AGTATAGGCC | 0.929
15 | AGTATCAAAG | 1.04
16 | AGTATCGCGA | 1.08
17 | AGTATCGCGG | 1.01
18 | AGTATCTGCT | 0.989
19 | AGTATCTTTG | 0.982
20 | AGTATGCGTC | 1.06
21 | AGTATGTATT | 0.986
22 | AGTATGTTGC | 0.984
23 | AGTCAAAGAT | 0.973
24 | AGTCAAGTTT | 1.01
25 | AGTCAATGGT | 0.998
26 | AGTCACAAGC | 1.05

Row | Sequence | switch fluorescence ratio
27 | AGTCACGCTG | 0.975
28 | AGTCACTTAA | 1.04
29 | AGTCACTTCG | 0.995
30 | AGTCAGTGTG | 1.03
31 | AGTCATCTCA | 0.925
32 | AGTCATTACG | 1
33 | AGTCCATGCT | 1.04
34 | AGTCCGGTAC | 2
35 | AGTCCTTAAA | 0.992
36 | AGTCCTTCTT | 1.01
37 | AGTCGACTC | 1.01
38 | AGTCGAGGTG | 1
39 | AGTCGCGTAT | 0.998
40 | AGTCGGACCA | 0.938
41 | AGTCGGCTTA | 1.03
42 | AGTCGTATGT | 1
43 | AGTCGTGATA | 1.03
44 | AGTCGTTGCA | 1.01
45 | AGTCTAGG | 1
46 | AGTCTATCTA | 1.04
47 | AGTCTGCGGT | 0.998
48 | AGTCTGGCTG | 0.939
49 | AGTCTGGTAT | 0.99
50 | AGTCTGGTTA | 0.947
51 | AGTCTTAGGT | 0.975
52 | AGTCTTCGCC | 0.942

Row | Sequence | switch fluorescence ratio
53 | AGTCTTGTGT | 0.998
54 | AGTGAAACCT | 2.62
55 | AGTGAAGGTG | 1.28
56 | AGTGAATCGG | 0.968
57 | AGTGACCGCG | 0.92
58 | AGTGAGGAGG | 0.959
59 | AGTGAGTCAA | 0.973
60 | AGTGAGTGT | 1.01
61 | AGTGATAACC | 1.03
62 | AGTGATCG | 1
63 | AGTGATTCAT | 0.994
64 | AGTGCCAGCT | 0.963
65 | AGTGCCGAGG | 1.02
66 | AGTGCGACTG | 0.955
67 | AGTGCGATAA | 1.19
68 | AGTGCGTACG | 0.995
69 | AGTGCGTCAC | 1.02
70 | AGTGCGTGAG | 0.947
71 | AGTGCTGTTG | 1.02
72 | AGTGGATCTG | 1.01
73 | AGTGGCCATG | 0.982
74 | AGTGGCGCTC | 1.02
75 | AGTGGGGAAG | 0.929
76 | AGTGGTCTTT | 0.955
77 | AGTGGTTCTT | 1
78 | AGTGTAAAGT | 0.972

Row | Sequence | switch fluorescence ratio
79 | AGTGTACACC | 0.988
80 | AGTGTCTGAA | 0.979
81 | AGTGTGCAAA | 1.03
82 | AGTGTGCCTT | 0.96
83 | AGTGTTAATT | 1.03
84 | AGTTAAATTG | 0.985
85 | AGTTAAGAAC | 1.05
86 | AGTTAAGGGG | 0.968
87 | AGTTAATAGT | 1.01
88 | AGTTAATCCT | 1.07
89 | AGTTAGTAAA | 0.97
90 | AGTTATAACT | 1.58
91 | AGTTCAGGC | 0.969
92 | AGTTCCGGAG | 2.93
93 | AGTTCGCATG | 1.06
94 | AGTTCGCTCG | 0.922
95 | AGTTCGTATC | 1
96 | AGTTCTCTTG | 0.968
97 | AGTTCTGAAT | 1.02
98 | AGTTCTTAGC | 1.02
99 | AGTTGAATG | 0.999
100 | AGTTGAGG | 0.984
101 | AGTTGGCGTA | 0.939
102 | AGTTGGCTAT | 0.99
103 | AGTTGGGCC | 1.03
104 | AGTTGGTAAA | 0.973

Row | Sequence | switch fluorescence ratio
105 | AGTTGTGCCC | 0.939
106 | AGTTTAAAAT | 0.976
107 | AGTTTACATG | 1
108 | AGTTTAGGAT | 0.953
109 | AGTTTATATG | 1.02
110 | AGTTTCGAA | 1.06
111 | AGTTTCTCTT | 1.02
112 | AGTTTGCAT | 0.963
113 | AGTTTGGCGA | 1.01
114 | AGTTTGGGCT | 0.99
115 | AGTTTGTTGA | 1.02
116 | AGTTTTGGCT | 1.01
117 | AGTTTTGTAA | 0.951
118 | AGTTTTTCAG | 1.01
119 | AGTTTTTGCA | 0.937
120 | AGTTTTTTCA | 0.972
121 | ATAAAAACAG | 0.993
122 | ATAAAACACT | 1.03
123 | ATAAAAGGTT | 0.999
124 | ATAAAATTG | 1.01
125 | ATAAACCAGG | 1.39
126 | ATAAAGAAAA | 1.01
127 | ATAAAGATCG | 0.979
128 | ATAAAGCGTC | 1.12
129 | ATAAAGGCGG | 0.964
130 | ATAAAGTCCG | 0.993

Row | Sequence | switch fluorescence ratio
131 | ATAAATTGAG | 0.961
132 | ATAACCCGAG | 1.03
133 | ATAACCGAGT | 1.07
134 | ATAACGCGAA | 1.16
135 | ATAACTACCA | 1.06
136 | ATAACTCCCT | 1.33
137 | ATAAGAAATT | 0.999
138 | ATAAGAATAT | 1.02
139 | ATAAGAATGG | 0.942
140 | ATAAGACTCC | 1.2
141 | ATAAGATTTG | 0.981
142 | ATAAGCAACG | 1.06
143 | ATAAGCCGTT | 0.967
144 | ATAAGGCCAG | 1.04
145 | ATAAGGCGGT | 0.988
146 | ATAAGGTACA | 1.08
147 | ATAAGTCGTT | 0.972
148 | ATAAGTGTTT | 0.998
149 | ATAATAACAT | 1.02
150 | ATAATCA | 1.02
151 | ATAATCTTCT | 1.12
152 | ATAATGCGT | 0.985
153 | ATAATGGCT | 1.03
154 | ATAATGTAAA | 1.05
155 | ATAATTGCTG | 0.932
156 | ATAATTGTAG | 0.947

Row | Sequence | switch fluorescence ratio
157 | ATAATTTACT | 1.08
158 | ATACAAGCCG | 1.37
159 | ATACAGGTTG | 1.14
160 | ATACAGTCAC | 1.21
161 | ATACATAA | 1.05
162 | ATACATTGAC | 1.1
163 | ATACATTTTA | 1.03
164 | ATACCCAAAT | 1.01
165 | ATACCTCAGA | 0.974
166 | ATACGAGTT | 1.02
167 | ATACGCTAGT | 1
168 | ATACGGATAG | 1.06
169 | ATACGGCGG | 0.983
170 | ATACGGTTAA | 1.07
171 | ATACGGTTGT | 1.02
172 | ATACGTACGG | 1.68
173 | ATACGTCAAC | 1.29
174 | ATACTATGTA | 0.954
175 | ATACTCCAT | 1.15
176 | ATACTCGGGC | 1.01
177 | ATACTTACGG | 1.58
178 | ATACTTATTC | 1.02
179 | ATACTTTCAT | 1.01
180 | ATAGAACACA | 0.988
181 | ATAGAGATT | 1.04
182 | ATAGAGGCT | 0.965

Row | Sequence | switch fluorescence ratio
183 | ATAGAGTAGT | 0.994
184 | ATAGAGTCCG | 1.07
185 | ATAGAGTGGC | 0.986
186 | ATAGATTAAG | 0.987
187 | ATAGATTAGC | 1.02
188 | ATAGATTGGT | 0.982
189 | ATAGCCCAAA | 0.97
190 | ATAGCCCATT | 0.962
191 | ATAGCCCTGC | 1.04
192 | ATAGCCGACA | 0.978
193 | ATAGCCGATA | 1.08
194 | ATAGCGCGCG | 1.01
195 | ATAGCGGCTA | 0.992
196 | ATAGCTGACA | 1.05
197 | ATAGCTGGTG | 1.01
198 | ATAGCTGTCG | 1.07
199 | ATAGCTTCCA | 1.12
200 | ATAGGCAAGC | 1.24
201 | ATAGGCAAGT | 1.03
